Screen size: about 310,000 compounds; about 14,000 (4.5%) showed an effect of 50% or more. Effects have a minus sign here. This is one part of the list.
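Further: peak tail current of the secondary pulse compared with the same well before compound.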

Chain of human ether-à-go-go-related gene (hERG) potassium channel (Q12809 whole entry, looked up): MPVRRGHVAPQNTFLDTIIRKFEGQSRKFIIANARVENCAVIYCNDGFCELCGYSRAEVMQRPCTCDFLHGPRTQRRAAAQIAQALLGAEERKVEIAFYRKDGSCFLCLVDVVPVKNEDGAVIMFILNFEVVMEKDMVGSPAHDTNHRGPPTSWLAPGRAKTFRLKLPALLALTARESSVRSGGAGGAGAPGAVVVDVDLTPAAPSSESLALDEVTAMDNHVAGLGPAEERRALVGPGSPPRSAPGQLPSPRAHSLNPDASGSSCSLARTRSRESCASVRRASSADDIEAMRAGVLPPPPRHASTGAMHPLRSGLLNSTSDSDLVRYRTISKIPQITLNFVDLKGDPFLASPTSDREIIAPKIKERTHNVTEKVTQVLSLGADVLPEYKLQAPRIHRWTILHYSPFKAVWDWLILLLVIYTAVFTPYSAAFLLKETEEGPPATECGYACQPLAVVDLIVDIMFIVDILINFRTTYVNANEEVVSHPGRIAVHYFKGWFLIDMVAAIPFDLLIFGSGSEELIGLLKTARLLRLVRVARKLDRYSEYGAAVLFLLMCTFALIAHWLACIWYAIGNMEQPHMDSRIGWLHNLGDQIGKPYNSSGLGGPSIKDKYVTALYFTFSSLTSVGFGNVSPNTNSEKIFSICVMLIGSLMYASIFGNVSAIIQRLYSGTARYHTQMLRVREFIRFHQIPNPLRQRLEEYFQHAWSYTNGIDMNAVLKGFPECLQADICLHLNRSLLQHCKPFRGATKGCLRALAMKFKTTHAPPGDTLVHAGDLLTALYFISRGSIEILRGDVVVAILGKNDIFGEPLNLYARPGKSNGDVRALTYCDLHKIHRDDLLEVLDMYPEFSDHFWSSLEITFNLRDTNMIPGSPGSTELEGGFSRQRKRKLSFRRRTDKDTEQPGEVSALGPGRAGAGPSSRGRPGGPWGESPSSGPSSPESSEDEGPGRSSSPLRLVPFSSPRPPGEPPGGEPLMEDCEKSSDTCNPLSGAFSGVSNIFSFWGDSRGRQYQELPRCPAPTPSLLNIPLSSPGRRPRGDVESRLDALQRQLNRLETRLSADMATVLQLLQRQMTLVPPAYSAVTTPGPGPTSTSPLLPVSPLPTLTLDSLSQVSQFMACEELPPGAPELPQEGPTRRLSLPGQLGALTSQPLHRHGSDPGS

The test addresses human ether-à-go-go-related gene (hERG) potassium channel (human, UniProt Q12809). Briefly: primary screen, population patch clamp on CHO cells stably expressing hERG.
As to `Cn1nc(-c2ccccc2)c2ncc(C(F)(F)F)cc21`, the “hERG current change (%, negative = inhibition) at 10uM” value is recorded as -5.15%.
For `CC(=O)/C(=N/Nc1ccc([N+](=O)[O-])cc1)N1CCCc2ccccc21`, the “hERG current change (%, negative = inhibition) at 10uM” value is 7.77%.
As for `CC(=O)NC(C)(CC(=O)c1ccccc1)c1ccccc1` (centres unmarked), the “hERG current change (%, negative = inhibition) at 10uM” value was 3.77%.
Turning to `Cn1c(=O)oc2cc(S(=O)(=O)NCCC(=O)NCCc3ccccc3)ccc21`, the “hERG current change (%, negative = inhibition) at 10uM” value is given as 1.29%.
For `CCOC(=O)c1sc2c(c1C)c(=O)c(C(=O)OCC)cn2CC`, the “hERG current change (%, negative = inhibition) at 10uM” value stood at 12.5%.
On to `Cc1ccc(OCC(=O)Nc2ccc(F)cc2)cc1C`, for which the “hERG current change (%, negative = inhibition) at 10uM” value is 13.1%.
The value for `COc1ccc(N=C2C(=O)Nc3ccccc32)cc1` was -6.61%; that for `NC(=O)c1c(NC(=S)Nc2ccccc2)sc2c1CCCC2` was 28.9%; that for `NS(=O)(=O)c1ccc(NC(=O)/C=C/c2ccc3c(c2)OCO3)cc1` was 8.18%.
With `CCOC(=O)c1cc2cc(OCc3ccccc3)ccc2nc1C`, the “hERG current change (%, negative = inhibition) at 10uM” value came out at 9.26%.
In the case of `CCOc1ccc(N(CC(=O)N/N=C/c2cccnc2)S(C)(=O)=O)cc1`, the “hERG current change (%, negative = inhibition) at 10uM” value is given as -11.7%.
Then `CC1=C(C#N)C(=O)N(C)C(C)(C)C1`, with 4.83%.
`CCCNC(=O)c1cc(-c2ccc3c(c2)OCO3)on1`: the “hERG current change (%, negative = inhibition) at 10uM” value came to 18%.
Then `COc1ccc(Cc2nc3ccc(C(=O)NCc4cc(C)no4)cc3o2)cc1`, with 17.4%; and `Cc1ccc(CN2CCC(n3nccc3NC(=O)C3CCOC3)CC2)cc1` (centres unmarked), with -26.8%.
With `COc1ccc(NS(=O)(=O)c2ccc(O)c(C(=O)OCC(=O)N3CCCCC3)c2)cc1`, the “hERG current change (%, negative = inhibition) at 10uM” value was -7.02%.
Then `CC(NC(=O)c1ccccc1)C(=O)N/N=C/c1ccc(O)cc1` (centres unmarked), with 14.1%; and `CCOC(=O)c1ccc(N(CC(=O)NCC2CCCO2)C(=O)CCC(=O)Nc2cc(C)on2)cc1` (centres unmarked), with 9.99%; and `Cc1cc2n(n1)SC(Nc1ccc(F)c(Cl)c1)N2` (centres unmarked), with -7.58%.
Turning to `CCN1CCN(c2nc(-c3ccccc3)c3ccccc3n2)CC1`, the “hERG current change (%, negative = inhibition) at 10uM” value is -71.2%.
Take `CCOc1ncccc1C(=O)NCCc1ccc(Cl)cc1`: the “hERG current change (%, negative = inhibition) at 10uM” value was -5.75%.
Turning to `Cc1ccc2nc(-c3ccc(Br)cc3)cn2c1`, the “hERG current change (%, negative = inhibition) at 10uM” value is 10.2%.
As for `COc1ccccc1NC(=O)C1=C(C)Nc2nc(-c3cccs3)nn2C1c1cccc(O)c1` (centres unmarked), the “hERG current change (%, negative = inhibition) at 10uM” value is on record as -40.3%.
On to `O=C(NC1CCCCC1)NC1C2CC3CC(C2)CC1C3` (centres unmarked), for which the “hERG current change (%, negative = inhibition) at 10uM” value was -6.14%.
`CC(Cc1n[nH]c(=S)o1)c1ccccc1` (centres unmarked): the “hERG current change (%, negative = inhibition) at 10uM” value came out at 20.7%.
Then `CC(=O)N(C(C)=O)C1=C(C#N)C2(CCCCC2)Cc2ccccc21`, with 2.51%.
`CN(CC(=O)O)S(=O)(=O)c1cccs1`: the “hERG current change (%, negative = inhibition) at 10uM” value is on record as 4.48%.
On to `CCCn1cnc2c(=S)nc(N)[nH]c21`, for which the “hERG current change (%, negative = inhibition) at 10uM” value is recorded as 16.3%.
Then `CC(=O)N1CCN(CC(=O)Nc2ccccc2Sc2ccc(Cl)cc2)CC1`, with -78%.
Take `O=C(c1ccc(CNS(=O)(=O)c2ccc(Br)cc2)cc1)N1CCCCCC1`: the “hERG current change (%, negative = inhibition) at 10uM” value is -21.6%.
Take `Cc1ccc(S(=O)(=O)N2CCN(C(C)C)CC2)cc1`: the “hERG current change (%, negative = inhibition) at 10uM” value is given as 19.3%.
As to `Cl.Fc1ccc(C(OCCN2CCCC2)c2ccc(Br)cc2)cc1` (centres unmarked), the “hERG current change (%, negative = inhibition) at 10uM” value is reported as -75.8%.
As to `CCc1cccc(N=c2c([N+](=O)[O-])nn(-c3ccc(Cl)cc3)n2O)c1`, the “hERG current change (%, negative = inhibition) at 10uM” value is -0.994%.
Turning to `CCN(CC)S(=O)(=O)c1ccc(N2CCCC2)c(C(=O)Nc2ccc(OC)c(Cl)c2)c1`, the “hERG current change (%, negative = inhibition) at 10uM” value amounted to 18.2%.
As to `CCOC(=O)c1sc(C)c2c1NC1(CCCCCC1)NC2=O`, the “hERG current change (%, negative = inhibition) at 10uM” value came out at 5%.
Turning to `CN(C)CCCNC(=S)NCc1ccc(Cl)cc1`, the “hERG current change (%, negative = inhibition) at 10uM” value was -26%.
For `CC(=O)Nc1ccc(/C=N/NC(=O)c2cc3cc(C)ccc3nc2C)cc1`, the “hERG current change (%, negative = inhibition) at 10uM” value is on record as -2.49%.
Then `O=C(CN(Cc1ccc2c(c1)OCO2)C(=O)CNC(=O)c1ccco1)NC1CCCCC1`, with -7.83%.
Then `Cc1nnc(SCSc2nnc(C)s2)s1`, with 6.64%.
On to `Cn1c(=O)nc2n(Cc3ccccc3)c3cccc(Cl)c3cc-2c1=O`, for which the “hERG current change (%, negative = inhibition) at 10uM” value is -4.14%.
Consider `CC(C)(C)c1ccc(/C=N/NC(=O)c2ccccn2)cc1`, for which the “hERG current change (%, negative = inhibition) at 10uM” value is listed as -4.68%.
For the compound `O=C(Nc1ccc(F)cc1)c1cccc(C(=O)Nc2ccc(F)cc2)c1`, the “hERG current change (%, negative = inhibition) at 10uM” value is reported as -28.4%.
Then `COc1ccc(C)c2sc(NC(=O)c3cccc(N4C(=O)CCC4=O)c3)nc12`, with -27.9%.
In the case of `NC(=O)CN1CCCC1c1ccc2c(c1)OCCO2` (centres unmarked), the “hERG current change (%, negative = inhibition) at 10uM” value was found to be 19.6%.
As to `C#CCNC(=O)C1=C[C@H](C2CC2)C[C@H](OCCCCO)O1`, the “hERG current change (%, negative = inhibition) at 10uM” value is recorded as 1.01%.
Regarding `Cc1ccc(CSC2=NCCN2C(=O)c2ccc(S(=O)(=O)N(C)C)cc2)cc1`, the “hERG current change (%, negative = inhibition) at 10uM” value turned out to be 13.6%.
Turning to `CN(C)c1ccc(C(=O)OCC(=O)NC2CCCCCC2)cc1`, the “hERG current change (%, negative = inhibition) at 10uM” value was -3.05%.
The value for `Cc1nc2ccc(NC(=O)COc3cccc(F)c3)cc2s1` was 42.6%; that for `CN(C)c1ccc(/C=N/OC(=O)Nc2ccccc2)cc1` was -2.98%; that for `O=C(O)CCc1ccc(-c2cccs2)n1CCc1ccccc1` was 2%.
Take `O=C(COc1ccc(Cl)cc1)Nc1cnn(Cc2c(Cl)cccc2Cl)c1`: the “hERG current change (%, negative = inhibition) at 10uM” value was 22%.
As for `COc1ccc(N2CCN(C(C)C(=O)Nc3nnc(C)s3)CC2)cc1.Cl` (centres unmarked), the “hERG current change (%, negative = inhibition) at 10uM” value is reported as -1.41%.
Turning to `CC(=O)NC(N(C#N)c1nc(Cl)nc(N(C)C)n1)C(Cl)(Cl)Cl` (centres unmarked), the “hERG current change (%, negative = inhibition) at 10uM” value was determined as 13.1%.
For `Cc1ccc(OCc2nc(-c3ccccn3)n[nH]2)cc1`, the “hERG current change (%, negative = inhibition) at 10uM” value is listed as -15.7%.
Regarding `NC(=O)NC(CC(=O)Nc1cccnc1)c1cccc(Br)c1` (centres unmarked), the “hERG current change (%, negative = inhibition) at 10uM” value is listed as 12%.
On to `CCCCCCn1c(=O)c(Cc2ccccc2)c(O)c2ccccc21`, for which the “hERG current change (%, negative = inhibition) at 10uM” value is on record as 4.61%.
Then `COc1ccc(CN2CCN(C(=O)c3cccc4ccccc34)CC2)c(OC)c1OC.O=C(O)C(=O)O`, with 11.9%.
Take `COc1ccc(C(=O)NC2CCN(CC(=O)Nc3cccc(OC)c3)CC2)cc1`: the “hERG current change (%, negative = inhibition) at 10uM” value was -25.4%.
As for `COc1ccccc1NC(=S)N1CCC(NC(=O)c2ccco2)CC1`, the “hERG current change (%, negative = inhibition) at 10uM” value came to 10.6%.
On to `COc1cccc(/C=N/NC(=O)CNC(=O)c2ccc3c(c2)OCCO3)c1O`, for which the “hERG current change (%, negative = inhibition) at 10uM” value is listed as -0.701%.
Turning to `Cc1ccc(OC/C(=N\O)C(C)(C)C)c([N+](=O)[O-])c1`, the “hERG current change (%, negative = inhibition) at 10uM” value was -15.2%.
Turning to `O=C(Nc1ccc(Cl)cc1)c1ccc(-c2ccccn2)s1`, the “hERG current change (%, negative = inhibition) at 10uM” value turned out to be 14.8%.
The value for `CC(C)CN(CCCNC(=O)CN1C(=O)CSc2ccc(S(=O)(=O)N3CCOCC3)cc21)CC(C)C` was 2.98%.
For `CCCCN(C)CCCNC(=O)c1cc(-c2cccnc2)nc2ccccc12`, the “hERG current change (%, negative = inhibition) at 10uM” value is recorded as -60.1%.
For `CCOc1ccc(CNCc2cccnc2)cc1`, the “hERG current change (%, negative = inhibition) at 10uM” value is recorded as -22.4%.
For `COc1ccc(-c2nc(SCC(=O)N3CCOCC3)n[nH]2)cc1`, the “hERG current change (%, negative = inhibition) at 10uM” value is given as -4.25%.
As to `COc1ccccc1C1/C(=C(\O)c2ccc3c(c2)OCCO3)C(=O)C(=O)N1Cc1cccnc1` (centres unmarked), the “hERG current change (%, negative = inhibition) at 10uM” value stood at 18.9%.
With `O=C(Nc1ccc(Br)cc1)c1csc(-c2ccncc2)n1`, the “hERG current change (%, negative = inhibition) at 10uM” value is -9.16%.
Turning to `Cc1ccc(CSCc2nnc(SCC(=O)N3CCN(c4ccccc4)CC3)n2C)cc1`, the “hERG current change (%, negative = inhibition) at 10uM” value is -54%.
On to `CCn1c2ccccc2c2cc(NC(=S)N3CCOCC3)ccc21`, for which the “hERG current change (%, negative = inhibition) at 10uM” value is 4.55%.
The value for `O=c1cc(-c2ccc([N+](=O)[O-])cc2)nc2cc(-c3ccc(F)cc3)[nH]n12` was 4.49%; that for `CC(C)c1ccc(-c2nn(-c3ccccc3)cc2C(=O)NCC2CCCO2)cc1` (centres unmarked) was -1.18%.
`CC(C)C(NS(=O)(=O)c1ccc2c(c1)oc(=O)n2C)C(=O)N1CCN(c2ccccc2F)CC1` (centres unmarked): the “hERG current change (%, negative = inhibition) at 10uM” value is recorded as -8.09%.
As to `CCOC(=O)C(Cc1ccccc1)NC(=O)CCC(=O)c1ccc(OC)cc1` (centres unmarked), the “hERG current change (%, negative = inhibition) at 10uM” value is reported as -0.95%.
As for `Cc1ccc2c(c1)NC(=O)c1cccc([N+](=O)[O-])c1CO2`, the “hERG current change (%, negative = inhibition) at 10uM” value turned out to be 11.2%.
The value for `CCC(=O)N1CCCC(C(=O)c2ccc(-c3ccccc3)cc2)C1` (centres unmarked) was -19%; that for `CCCn1nc(C(=O)OCn2nnc3ccccc3c2=O)c2ccccc2c1=O` was 8.96%.
`CN1CCN(CCCNC(=O)c2ccc3c(Cl)c4c(nc3c2)CCCC4)CC1`: the “hERG current change (%, negative = inhibition) at 10uM” value was -6.81%.
As to `CCCCCCc1ccc(OC(=O)c2ccncc2)cc1`, the “hERG current change (%, negative = inhibition) at 10uM” value came out at 20.4%.
For `Nc1nnc(CCN2CCCCC2)s1`, the “hERG current change (%, negative = inhibition) at 10uM” value was 4.42%.
In the case of `COc1ccc(N2C(=O)CC3(CCCC3)CC2=O)cc1`, the “hERG current change (%, negative = inhibition) at 10uM” value is 8.21%.
For `CCc1ccc(N/C(SCc2ccccc2C)=C(/C#N)C(=O)NCc2ccco2)cc1`, the “hERG current change (%, negative = inhibition) at 10uM” value was 0.16%.
With `Cc1cc(/C=C2/C(=O)N(C)C(=S)N2C)ccc1N1CCCC1`, the “hERG current change (%, negative = inhibition) at 10uM” value is 7.27%.
For the compound `O=C(Nc1ccnn1C1CCN(C/C=C/c2ccccc2)CC1)c1cccc(F)c1`, the “hERG current change (%, negative = inhibition) at 10uM” value was -70.9%.
With `Cc1ccc(NS(=O)(=O)c2ccc(C(=O)N3CCCCCC3)cc2)cc1`, the “hERG current change (%, negative = inhibition) at 10uM” value is -8.38%.
The value for `COc1ccc(C(=O)NCCNC(=O)c2cnccn2)cc1` was 11.8%; that for `COC(=O)Cc1ccc(NC(=S)N2CCN(c3ccccn3)CC2)cc1` was 10.2%; that for `O=C(NC1CCCc2c1cnn2-c1cc(F)cc(F)c1)c1ccncc1` (centres unmarked) was -64.1%.
Then `CCOc1ccc(NC(=O)NC2(C(=O)NCc3ccco3)CCCCC2)cc1`, with 15.8%; and `CC1(C)NS(=O)(=O)Oc2ccccc21`, with 18.3%; and `Cl.NCCNc1ccc([N+](=O)[O-])cc1`, with -6.16%.
For the compound `C=C1CCN(CC(=O)OC)S(=O)(=O)c2ccccc21`, the “hERG current change (%, negative = inhibition) at 10uM” value was found to be 4.26%.
